{"source": "patent US20200000825A1", "about": "“METHODS AND COMPOSITIONS FOR TREATING AND PREVENTING VIRAL INFECTIONS” (ENTERIN LABORATORIES, INC., priority 2009, published 2020)", "tested_on": "RAW 264.7 macrophage line", "test": "Displacement of fluorescent membrane probes Trunc Cat Tail and H-Ras (Example 1)", "conditions": "squalamine 10 micromolar in culture medium", "data": [{"compound": "CC(C)[C@@H](CC[C@@H](C)[C@H]1CC[C@H]2[C@@H]3[C@H](O)C[C@H]4C[C@@H](NCCCNCCCCN)CC[C@]4(C)[C@H]3CC[C@]12C)OS(=O)(=O)O", "note": "[Squalamine, squalamine]", "values": [{"measurement": "Localization of H-Ras probe", "value": "remains associated with the membrane"}, {"measurement": "Localization of Trunc Cat Tail probe", "value": "displaced into the cytoplasm"}]}]}
